Laboratory results: the supplement of paper PMC11417369
This is one part of the list.

system: PfHDP1 homeodomain (GST-tagged); assay: gcPBM binding intensity (ln(normalized median fluorescence intensity)); higher = stronger DNA binding
How it was run: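 The highest Masliner-normalised natural-log median intensity across replicate spots of either probe orientation is reported as binding intensity. GST-tagged P. falciparum DNA-binding domains expressed in E. coli were applied for 1 h to an Agilent 4 × 180k array of primer-extended double-stranded 36-bp intergenic genomic probes plus negative controls, and bound protein was detected with Alexa488 anti-GST antibody and scanned at 488 nm.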

Sequence | gcPBM binding intensity (ln)
TTATTTTAATATAAAATACACACTACTATTATAAAT [CACACA_site1470] | 6.31
TATTACATACAATATTGTACATATCATATTTTGAAT [XGTACX_site2191] | 6.69
TATATATATATTATCACACACTCACGTTTGACAAAA [CACACA_site689] | 8.36
TTATTTATTTATTCATGTACGTGTATTTTTTAAAAA [XGTACX_site7915] | 6.9
TAATAAATACAAAAATGTACACACATATATATATTT [XGTACX_site7430] | 6.23
AGTGTCATATTAACACGTACATAATTATTGTAGAGA [XGTACX_site568] | 6.8
ATTGGGTACAAATACACACACATATATATATTAAGA [CACACA_site5330] | 6.84
ATATTTACCTTTGTATGTACATATATAAAATATATC [XGTACX_site6367] | 6.61
TTTTGTAAAAAGAAAAATTAGAATATATCGTATATA [XGTACX_negctrl_site617] | 6.03
AAAGAAAAATTAACATGTACAAAAATTACTTGTTCA [XGTACX_site6725] | 5.93
GTATTTTTACAAATTTGTACATATATATGAATATAC [XGTACX_site6717] | 7.48
GTATATAAATATATATATATATATATATCTATATTT [CACACA_negctrl_site871] | 6.68
TCTGAAACAAGAAAAAGTACACAAATTACAAAACTA [XGTACX_site7641] | 6.56
AAAAAAAATTCACACTGTACAAAAGCATAAATAAAC [XGTACX_site5408] | 6.89
TATAAATATTTATAAACACACAAATATATATATTTA [CACACA_site27] | 6.61
TTATATATATAGAAGTGTACAAAATTTCCTAGACCT [XGTACX_site3900] | 6.55
GCACGCTGTATGAATGCACACATTCATAGAATTGCT [CACACA_site8852] | 9.48
ATCAAAATGTTAAAGATACACACCTAACAAACACAA [CACACA_site955] | 7
TATCGACATTTCATTTGTACATATATACATATATTT [XGTACX_site3346] | 6.48

Sequence | gcPBM binding intensity (ln)
CCAATAATATATAGAAGTACAGAAAAAAAAAAAAAA [XGTACX_site2049] | 6.47
AAGAAAATTAAATTAACACACATAAATATGTAAATA [CACACA_site6882] | 5.88
CCCTCTTCTCTCATATCACACATGTCATCCTTATCC [CACACA_site5078] | 7.18
TTTTGTTTGTTCGTGACTACATTATGTTGTAAATAC [CACACA_negctrl_site604] | 6.84
AAAGGTAAGCAGAATAGTACAGAAGAAAAAATATTT [XGTACX_site2941] | 6.8
TATCCTATAAATAATACATGCATATATATATATATT [TGCATGCA_site638] | 6.6
ATCAAAAAAAAAAAATTTTTTTTTTTGTTTGTTTCC [CACACA_negctrl_site1042] | 5.95
CAACATTTGAGACACACACACATACAAACAAACAAA [CACACA_site7538] | 6.87
AAATAGTATATAATATGTACATACATAAAAATGTAT [XGTACX_site3524] | 6.39
ACCTATGTATATTATACACACTCCAAACTATTATTT [CACACA_site1817] | 7.23
ATATGTATATATATTTGTACGTAAAATGAAATCTAA [XGTACX_site213] | 7.66
ATTACAAAAAAAAAAAAAAAAAAAAAAAAAAAAAAA [CACACA_negctrl_site448] | 6.02
TATACATAGATATATACACACATATATTTATATACA [CACACA_site6328] | 6.5
GAAAAATGAAGAGAACAAAATTTTATGATATATATA [GTGCAC_negctrl_site231] | 6.9
CCTTGAACCCCACTAACACACACACCCACGCTCAGA [CACACA_site8976] | 6.71
TTTCATAAATAAATATGTACATAATTAATAATAAAT [XGTACX_site5882] | 7.03
ATTTCACAGAAACACACACACAATATATTTCCTTTT [CACACA_site3904] | 6.72
ATAAAATACCTATAAACACACATATAAACAGACATA [CACACA_site7213] | 6.84
GTTATTGAAAAAATAGTGCAATATAACAAAGTAAAA | 9.71

Sequence | gcPBM binding intensity (ln)
AAATAAAACAAACACACACACACATACACAAAAAAA [CACACA_site3849] | 6.91
GGAATGTAGGGTTTTACCAAAATAAAAATAACCATA [XGTACX_negctrl_site492] | 6.54
TATATATATATATGTACACACATATATACCTTTCAT [CACACA_site2679] | 9.31
TATATATTTCGGTGTGCACACTTTTTATTTTTATCC [CACACA_site1726] | 10.7
TAATTTCTTATGTATTGTACAAATAATATATGATAT [XGTACX_site611] | 6.49
CTTATATATATATCATGTACTTATGTATTTAAGAAT [XGTACX_site3307] | 6.48
ACAATAAAAATTTATGCATGTGAATTGAAAAAAAAA [TGCATGCA_site1037] | 6.33
CTTTTATTAAAATTCACACACATAAACTTTTATAAA [CACACA_site7027] | 6.21
AATATATACAATATATGTACATATATATACACATAT [XGTACX_site4190] | 6.64
TATATATGTATATATATAAATATATATATATATATA [TGCATGCA_negctrl_site605] | 8.97
GCATAAGAAAATAATTGTACAATTTACATACATAAA [XGTACX_site8286] | 6.47
TACTCAAAAATTAATTAGCATAATATATATAAAAAT [GTGCAC_negctrl_site613] | 6.58
TAATGAAATATACAGAGTACATTCTGTATATAGGAT [XGTACX_site7691] | 6.22
TATAAATATATATACACACACACATTAATACATATA [CACACA_site3488] | 6.78
ATAATATTTTCTTCTTATTGAATGCTTTAAATTTAC [CACACA_negctrl_site1273] | 6.46
GGGAAATATTGAAACACACACGAACGCACGTATTTC [CACACA_site6258] | 6.58
TTAAGAAGTTCTAAATGTACATACATAACCACGTTA [XGTACX_site7514] | 6.29
ACAAATAAGTTTTGTAGTACTGTGTATATATATATA [XGTACX_site6901] | 8.95
